Measured values taken from PubChem BioAssay (Tox21).
Where “and” joins values, the source holds several entries; their conditions need not be identical. Equal values may be shown once. Inconclusive means that the source gave no clear call. Such entries were picked first, then a sample of the others. For some assays here: Potencies beside an inconclusive call are fits to weak or partial responses and may not hold up. Calls of active or inactive are those of the source. Unless noted, calls come from the whole dose curve.

Tests used:
[1] = qHTS assay for small molecule agonists of the p53 signaling pathway (AID 651631); conditions: HCT-116 p53RE-bla reporter, beta-lactamase FRET ratio, 16 h; activation: at 73.3 µM (top of the series) unless noted; note: nearly all actives have a fitted effect of over 15% in size
Summary of the method: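 Stably transfected HCT-116 cells (beta-lactamase behind p53 response elements) get compounds after a 5 h settling period; 16 h later at 37 °C, FRET substrate is loaded and fluorescence read after 2 h.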

[2] = qHTS assay for small molecule agonists of the p53 signaling pathway - cell viability (AID 651633); note: nearly all actives have a fitted effect of over 30% in size
Summary of the method: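 Viability counter-read: CellTiter-Glo luminescence (30 min, room temperature) in the same p53RE-bla plates. These plates had been exposed to compounds for 16 h at 37 C.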

[3] = qHTS assay for small molecules that induce genotoxicity in human embryonic kidney cells expressing luciferase-tagged ATAD5 - cell viability (AID 651634); note: nearly all actives have a fitted effect of over 25% in size
Summary of the method: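 After 15.5 hr incubation with compound at 37C, 5% CO2, HEK293T ATAD5-luciferase cells received CellTiter-Fluor reagent; fluorescence intensity was quantified following 30 min at 37C.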

[4] = qHTS assay for small molecule disruptors of the mitochondrial membrane potential (AID 720635; active = well fitted curve in the direction sought with a large enough effect in the repeat runs; inconclusive = weak or mixed curves; inactive = no such curve, though single readings can be large; an effect the other way counts as inactive or inconclusive); conditions: HepG2 mitochondrial membrane potential, Mito-MPS dye ratio; ratio activity, negative = MMP loss: at 83.2 µM (top of the series) unless noted
Summary of the method: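 Mitochondrial membrane potential tracked with Mito-MPS dye, red aggregates (ex 540/em 590 nm) against green monomers (ex 490/em 535 nm). Compound treatment 1 hr at 37C, dye 30 min in HepG2.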

[5] = molecular target: Glucocorticoid receptor (Homo sapiens) (UniProt P04150); assay: qHTS assay to identify small molecule agonists of the glucocorticoid receptor (GR) signaling pathway (AID 720691; active = well fitted activation curve with a large enough effect in the signal ratio in the repeat runs, not every such curve was filed as active; inconclusive = weak or mixed curves, or effect the other way; inactive = no such curve, though single readings can be large or run the other way; the % refers to the signal ratio; for activation: % is set by controls: 0 for no effect and ±100 for the full control effect); conditions: GR-bla HeLa, beta-lactamase reporter ratio, 18 h; activation: at 62.4 µM (top of the series) unless noted
Summary of the method: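 Cells: GR-bla HeLa, endogenous GR with stably integrated GRE-beta-lactamase reporter. Treatment 18 h, 37 C, compounds delivered in DMSO. Detection via LiveBLAzer B/G FRET substrate, 2 h RT, fluorescence intensity.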

[6] = molecular target: Glucocorticoid receptor (Homo sapiens) (UniProt P04150); assay: qHTS assay to identify small molecule antagonists of the glucocorticoid receptor (GR) signaling pathway (AID 720692; active = well fitted inhibition curve with a large enough effect in the signal ratio in the repeat runs, not every such curve was filed as active; inconclusive = weak or mixed curves, or effect the other way; inactive = no such curve, though single readings can be large or run the other way; the % refers to the signal ratio); conditions: GR-bla HeLa, beta-lactamase FRET ratio, dexamethasone-stimulated, 18 h; activity change, negative = inhibition: at 58.5 µM (top of the series) unless noted
Summary of the method: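 Quantitative HTS in antagonist format: HeLa cells expressing endogenous GR and a stably integrated GRE-bla reporter, stimulated with 5 nM dexamethasone (final) alongside test compounds for 18 h.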

[7] = qHTS assay to identify small molecule antagonists of the glucocorticoid receptor (GR) signaling pathway - cell viability counter screen (AID 720693; active = well fitted curve in the direction sought with a large enough effect in the repeat runs; inconclusive = weak or mixed curves; inactive = no such curve, though single readings can be large; an effect the other way counts as inactive or inconclusive; note: nearly all actives have a fitted effect of over 55% in size); conditions: GR-bla HeLa viability, CellTiter-Glo luminescence, 18 h, with 5 nM dexamethasone present; viability change, negative = cytotoxic: at 58.5 µM (top of the series)
[8] = qHTS assay for small molecule disruptors of the mitochondrial membrane potential - cell viability (AID 720634); note: nearly all actives have a fitted effect of over 20% in size
Summary of the method: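 ATP-based luminescent viability readout (CellTiter-Glo, 30 min, room temperature) in HepG2 cells multiplexed with the m-MPI membrane potential dye; compound exposure lasted 1 hr at 37 C.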
Potency is the fitted concentration of half-maximal effect; tags give direction and shape of the fitted curve or compound fluorescence and quenching.

Sequence of UniProt P04150 (P04150 whole entry, looked up): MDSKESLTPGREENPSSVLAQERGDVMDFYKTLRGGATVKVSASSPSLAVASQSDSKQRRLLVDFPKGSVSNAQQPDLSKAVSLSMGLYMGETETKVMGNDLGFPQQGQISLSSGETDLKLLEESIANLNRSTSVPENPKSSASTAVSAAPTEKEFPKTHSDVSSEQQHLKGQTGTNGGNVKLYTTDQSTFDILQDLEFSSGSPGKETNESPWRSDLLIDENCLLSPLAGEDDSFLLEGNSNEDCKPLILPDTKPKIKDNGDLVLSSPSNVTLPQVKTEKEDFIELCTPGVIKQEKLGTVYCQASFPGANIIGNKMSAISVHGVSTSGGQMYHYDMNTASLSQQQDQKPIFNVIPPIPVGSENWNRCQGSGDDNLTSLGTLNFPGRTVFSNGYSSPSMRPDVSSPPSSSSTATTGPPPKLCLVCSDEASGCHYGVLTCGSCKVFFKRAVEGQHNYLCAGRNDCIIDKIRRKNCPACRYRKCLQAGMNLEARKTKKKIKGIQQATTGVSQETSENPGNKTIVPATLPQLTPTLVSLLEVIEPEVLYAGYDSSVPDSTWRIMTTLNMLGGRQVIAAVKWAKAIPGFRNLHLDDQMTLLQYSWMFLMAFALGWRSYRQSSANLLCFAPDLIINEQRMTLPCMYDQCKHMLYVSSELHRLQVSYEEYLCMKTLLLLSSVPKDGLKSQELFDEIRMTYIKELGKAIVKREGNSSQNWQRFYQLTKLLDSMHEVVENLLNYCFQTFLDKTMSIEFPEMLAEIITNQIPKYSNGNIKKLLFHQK

Structure (SMILES)	Potency [1]	Potency [2]	Potency [3]	Potency [4]	Potency [5]	Potency [6]	Potency [7]	Potency [8]	activation [5]
CCCCCCCCCCCCc1ccccc1O	inconclusive: 26.9 µM [cytotoxic, full curve] and inconclusive: 19.3 µM [cytotoxic, full curve]	active: 26.9 µM and active: 24.3 µM	inconclusive: 67.7 µM [falling, single point]	active: 2.14 µM and active: 2.43 µM	inconclusive: 13.6 µM [cytotoxic] and inconclusive: 30.9 µM [cytotoxic, partial curve]	inconclusive: 21.6 µM [cytotoxic, full curve] and inconclusive: 24.5 µM [cytotoxic, full curve]	active: 21.6 µM and active: 21.9 µM		
O=C(Nc1ccc(Cl)cc1)Nc1ccc(Cl)c(Cl)c1	active: 7.5 µM and active: 5.42 µM and active: 15.4 µM	inconclusive: 10.6 µM [cytotoxic, partial curve, poor fit]		active: 150 nM and active: 68.2 nM and active: 86.3 nM		inconclusive: 1.9 µM [falling, full curve] and inconclusive: 3.87 µM [falling, full curve] and inconclusive: 3.47 µM [falling, full curve]	active: 4.77 µM and active: 7.73 µM and active: 6.92 µM	inconclusive: 1.19 µM [cytotoxic, partial curve, poor fit] and inconclusive: 76.6 nM [cytotoxic, full curve, poor fit] and active: 1.93 µM	inconclusive: 1.25% [phenotype inactive]
